Laboratory results published in ChEMBL document CHEMBL4888484, “Replenishing the malaria drug discovery pipeline: Screening and hit evaluation of the MMV Hit Generation Library 1 (HGL1) against asexual blood stage Plasmodium falciparum ,using a nano luciferase reporter read-out” (2022).
Out of some 150,000 compounds screened, about 540 (0.36%) showed an effect of 50% or more. This is one part of the list.

Test system: Plasmodium falciparum
Assay: Primary screen in NF54 nanoGlo assay, in single point, at 2uM, 72h; a lower Z score goes with more inhibition
Assay type: functional, Erythrocyte
Settings: timepoint 72 hour

SMILES	% Inhibition [%]	Z score
c1cncc(Cn2ncc3[nH]c(-c4ccc([C@@H]5CCCCO5)s4)nc32)c1	-21	1.88
O=C(Nc1nc(-c2ccc(S(=O)(=O)N3CCCCCC3)cc2)cs1)c1ccccc1Cl	-10	1.89
O=C1NCCCCCN(Cc2cccc(F)c2)[C@@H]2C[C@@H](C(=O)N3CCc4ccccc4C3)C[C@H]12	-2	0.29
CC(C)C(=O)N1CC(OCc2ccc(Cl)cc2)C1	1	-0.24
CC(C)OC1CCC(NC(=O)N(C)CC2CCCCC2O)CC1 (stereo unspecified)	-10	1.43
O=C(CCCc1cn[nH]c1)N1C[C@@H]2CC[C@H]1CN(Cc1cscn1)C2	-10	1.02
CC(NC(=O)C1CC=CCC1C(=O)N1CCOCC1)c1nc[nH]n1 (stereo unspecified)	-15	2.35
C[C@]1(O)CCN(C(=O)c2onc3c2CCCC3)C1	-8	1.1
CCn1cc(S(=O)(=O)N2C[C@H]3CN(S(=O)(=O)c4cccc(F)c4)C[C@@H](C2)O3)cn1	-2	0.41
C[C@@H](CN(C)C(=O)c1ccnnc1)Oc1ccc(Cl)c(Cl)c1	-6	1.1
Cc1nn(C(C)(C)C)cc1C(=O)N1CCC2(CCN(C)CC2)C1	-8	1.64
C[C@H](Nc1ccccn1)C(=O)NC(C)(C)C	-1	0.18
CCCc1nc(CN(C)C(=O)c2ccc3sc(N)nc3c2)no1	-10	1.95
CCc1ncc(CNC(=O)[C@H]2CCN(Cc3ccccc3)C2)o1	-4	0.68
Cn1nccc1-c1nccc(N2CCC[C@H](O)C2)n1	6	-0.76
CN1C(=O)c2ccc(-c3cnn(C)c3)cc2O[C@H]2CN(Cc3nccs3)C[C@H]21	19	-2.21
C[C@H]1CCN(CCc2ccccc2F)CCS1(=O)=O	-5	0.47
Cc1cc(C)c(CNCc2ccc(N3CCCC3=O)cc2)cc1C	-4	0.39
CN(C(=O)CCn1cnc2ccccc2c1=O)C1CCCC1	-17	2.81
CC(C)C(=O)N1CCC(NC2CC(C)(C)Cc3occc32)C1 (stereo unspecified)	2	-0.2
CC(C)(C)OC(=O)N1CCC(c2ccn(CC3(CC#N)CC3)n2)CC1	8	-0.97
COCCN(Cc1nc2ccc(C)cc2[nH]1)CC1CC1	-12	2.15
COc1ccc(CN2CC[C@H](CS(C)(=O)=O)C2)cc1OC1CC1	-4	0.88
